The list shows a part of the results. The list includes weakly bound sequences.
Molecular target: MaxL homodimer (UniProt P61244)
Assay: universal protein-binding microarray (PBM)
Conditions: PBS-based mixture, 10 nM His-tagged protein dimer, 2% milk, 200 ng/uL BSA, 50 ng/uL salmon testes DNA, 0.02% TX-100; detection with Alexa 488 anti-His …; high values mean tight binding; most listed sequences are background and not binding sites; double strand, one strand shown

UniProt P61244, sequence (P61244 whole entry): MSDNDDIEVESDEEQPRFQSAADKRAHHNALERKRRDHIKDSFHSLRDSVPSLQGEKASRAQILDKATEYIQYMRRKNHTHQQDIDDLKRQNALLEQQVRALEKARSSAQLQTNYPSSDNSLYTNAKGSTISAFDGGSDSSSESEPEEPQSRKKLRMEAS

Sequence	binding signal (normalized occupancy)
AAGATTTC	0.0717
CACACCCG	0.0841
CAGTTAAG	0.0719
GCCGGCGA	0.0629
GGGTGGAC	0.0796
ACAGGGAT	0.0814
GGACGCGA	0.0754
ACTGGTTA	0.0754
AATCCCGG	0.0748
CATTAAAG	0.0825
AGGGCAAG	0.0725
AACATAGT	0.0749
AATTAGGG	0.0765
GGGCTATA	0.0788
CAAGGAGA	0.0729
CTACGCTC	0.069
ATTAGACG	0.0762
ACCGTCGC	0.0681
GTCTAGAC	0.0727
AGCCGAGA	0.0688
GATGCCAC	0.0739
AGCCACTG	0.0678
CCGATAGC	0.0729
CGTCTACC	0.0714
CACTCGAA	0.0772

Sequence	binding signal (normalized occupancy)
TACCGGTA	0.0753
CGGACAAC	0.0729
GAGGTTGA	0.073
ACACGGCG	0.0799
CACTACAA	0.0767
CCCCAACA	0.0773
TCCCTTAA	0.0756
GACTTACC	0.0805
ACGTTTAC	0.0795
GATCACCC	0.0786
ACTTGACT	0.0743
AAATGCGT	0.0858
GTGCCCAC	0.0788
TAGTACAA	0.0729
ATAGTCGA	0.074
TCAGCACA	0.0823
CTAACGTA	0.0783
GGAGTCCA	0.0766
CAACCCAC	0.082
CTTTTTAA	0.07
AAGAATGC	0.0755
ATCGAGTA	0.0793
CACCGGAC	0.0724
ACCCAGGA	0.0727
AAAAGGGG	0.072

Sequence	binding signal (normalized occupancy)
ACTCAGTC	0.0717
AAATGTAC	0.0841
CTCGTAGA	0.0699
GACTTATA	0.0764
CTTGTCAA	0.0754
ACTAGCGG	0.067
ACACTTAG	0.0804
CACACGAC	0.0877
CCCATCGG	0.072
ACTTAGAA	0.0752
CACCTATC	0.0826
TGGGATAA	0.0791
AGTACGCA	0.0726
AGGACATG	0.0903
GAGCGGTA	0.0669
TAAGTCAA	0.0696
CTCCATTC	0.0774
AATTCGTA	0.0775
CGATTGGA	0.0732
AGATTGTC	0.0748
TCGAACGA	0.0735
AAATTCGC	0.0739
TCAGGAAA	0.0694
AGGAGCCC	0.0711
TATAAATA	0.0757

Sequence	binding signal (normalized occupancy)
CCTGATCG	0.0727
CTCTCGCA	0.0754
ACAGCCAC	0.0758
GGGGGTAC	0.082
CCTCCAGA	0.0716
GACATGTA	0.0884
GAGGACTA	0.0758
CTAGGGAG	0.0726
ACATTCGT	0.0804
ACGGTACA	0.0773
AAGTAGGC	0.0745
TCACGGAA	0.0721
CCCGGGCG	0.069
AGACTGTG	0.0696
AGGGACGC	0.0691
ACGTGGTA	0.115
TAAATTTA	0.0729
AAACCTGG	0.0787
GAAGGTAA	0.0738
TCAGTCCA	0.0731
ATCTAACC	0.0798
TGTCCAAA	0.079
CCTCCTTC	0.0732
GGTGGAGA	0.0757
ACCAGGGT	0.0713

Sequence	binding signal (normalized occupancy)
CAATCCTG	0.0744
AGCAGTAA	0.0692
CAACATCG	0.0784
AAGGTTCT	0.0744
CACCAAAC	0.076
GATACGGC	0.068
CTATGGCC	0.0704
CACACTCC	0.0811
TACCGGGA	0.0741
ACACTACT	0.0755
AATATCAG	0.0772
ACGATCTC	0.0679
ACACACTC	0.0859
GCGATGAC	0.0752
GCGCGACA	0.0733
AGGATTAA	0.0715
ATGTGGTC	0.0985
GCAACCCA	0.0781
ATGGATCG	0.0798
CACATCGG	0.0739
CACGATGC	0.0946
AGCCTCAG	0.0649
GGGTGAGA	0.0818
CCGCCAGA	0.0735
GGGTACAC	0.0823

Sequence	binding signal (normalized occupancy)
CCTATCGA	0.0772
AATCGCCA	0.0753
TAAGGTGA	0.0717
ACCACGCT	0.123
CAAGTGCC	0.0688
GGTGGGAA	0.0801
CATTAAGC	0.0758
ATCACATG	0.158
ATATTCAG	0.0784
CAATCAAG	0.0746
AATCAGAT	0.0782
ACACCTAA	0.0763
TGTATAAA	0.085
ACCGCTTA	0.0737
ATGCACAA	0.0827
TGAGATCA	0.0819
CATCCTGC	0.0785
AAGAGGGT	0.0742
ACACGTCC	0.08
ATTACCTG	0.0735
AACCCATT	0.0783
ACGTACGT	0.0783
CGGATCGC	0.0707
ATTTCCGC	0.0733
ATGAAGTG	0.0824

Sequence	binding signal (normalized occupancy)
ATGCGTGA	0.0965
CCAAGTAA	0.0724
AGATTAAA	0.068
ATATACAA	0.0876
CCTTTTAC	0.0757
CGTGTGCC	0.0918
CCGCCGAA	0.0661
ACCCCGCT	0.0799
AAACACAA	0.0776
GCCCCCAA	0.0736
ACGTGTAA	0.1
AAAACGCG	0.0758
ACTTCGCC	0.0729
ACAGAACA	0.073
AACGTGAG	0.0854
CCCGCGGG	0.0758
AGCGGGCG	0.0694
AGGCTAAG	0.07
ATTCCTAA	0.0781
AAACGTCG	0.0737
CAAGTCTC	0.0729
ATGGCTCG	0.0763
GAGAAGTA	0.0795
ATAATTAG	0.0786
CCGAGACC	0.0792

Sequence	binding signal (normalized occupancy)
ACGGTTCG	0.0714
GAGTGTGA	0.0772
GGGTAGTA	0.0811
GGTCTTCA	0.0693
ATCATACG	0.0791
CTACTGGC	0.0668
CGATTGAA	0.0751
ATTCCTTC	0.072
CAACAAAG	0.0685
GAAACACC	0.0751
CTGATGAC	0.0751
ATAGGGAC	0.074
GGACCGCC	0.0671
CCAACCAA	0.0742
CCCCATGA	0.0895
AGCGGCGA	0.0673
TGCGTACA	0.0865
CCCCGTAA	0.0775
GTTGGTAA	0.0789
GACGCTCA	0.0731
AAGCTTAT	0.0711
CGTAAAAG	0.0724
CGGATGAC	0.0761
AAAAAGAG	0.0707
TCGGCGAA	0.0713

Sequence	binding signal (normalized occupancy)
ATTTGCGA	0.0774
CCACTCGG	0.0691
CAAGGATA	0.076
CGGTTTAG	0.0694
CTTAGTAA	0.0712
GGAAGTCA	0.0734
CTCGTGCC	0.0909
AGAATCTA	0.0779
CGGTACGC	0.0666
GATATACA	0.0827
GAGGATTA	0.0775
AGGTGCAG	0.0801
AACTTCCA	0.0677
CAAGCGTG	0.104
ATGAGTGG	0.079
CGTGTAAC	0.0871
CGGCTTTA	0.0697
GAATGTGA	0.0817
ACGCGGCG	0.082
ATCGGTGC	0.0757
CGGAAAGA	0.0742
GTCGAAAC	0.0714
AGGGAGGA	0.0742
AATCTGTA	0.0795
CTGTTGCC	0.068

Sequence	binding signal (normalized occupancy)
TAAGCGGA	0.0688
CCTCCCAA	0.0795
ATATCCAG	0.078
GGAAAACA	0.0754
AAGCTTTA	0.0725
ATTCTGTC	0.0792
AAGGGGAT	0.0775
ACTGAACC	0.0727
CAAGTGCG	0.073
CTTGCTGC	0.0689
CTTAAGAA	0.0729
AGAGATAT	0.083
CACAGTAG	0.0759
AGGTCAGG	0.0741
CGTCCGGA	0.0722
GAAGCTGA	0.0667
AACGATCA	0.0757
AACTGTGT	0.0728
AATCGCCC	0.0731
AGAGGGTA	0.0784
GCAGTACC	0.0752
GCGGAACA	0.0734
CGTCGAAC	0.0719
ATCGTCAT	0.08
CACGAGGA	0.137

Sequence	binding signal (normalized occupancy)
TAATGGTA	0.0765
GCACTAAC	0.0688
CGCTTACG	0.072
AGTAGGAA	0.0707
TAACAGAA	0.0762
AGTTGTCC	0.0735
CTCCTCAC	0.0758
GCGTCAAC	0.0752
GGTGTTGA	0.082
CGCCAGCG	0.0648
GTGCGCGA	0.0808
ATGGTAGA	0.0801
ACGCATCG	0.0806
ACTATTAT	0.0787
GACATTTA	0.0853
ATATGGAG	0.0902
GTGGGAAA	0.0821
CAGTAAGA	0.074
CCCGAGTC	0.0738
ACATTTAT	0.0867
ATATCCGA	0.0821
CTTAAGGC	0.0688
AAACAAAG	0.0763
ATAACCTG	0.0814
GTGAGCAC	0.0807

Sequence	binding signal (normalized occupancy)
CGCCATAC	0.0884
AGACCGAG	0.068
CGTACGTC	0.0762
ATGCTGAA	0.0799
GACTGCTA	0.0712
CAGTGGAA	0.0706
GAAGCACA	0.0773
CAGCATAG	0.0739
GGAGATAC	0.0701
CGGGACAG	0.0676
ATGTTTGG	0.0806
TGCGAACA	0.0776
GGCTTGTA	0.0849
AGTGCGCA	0.076
AGCCGTTC	0.066
AAGCCACA	0.0844
CATAATGG	0.0823
AACAGTCT	0.0721
GCCTATTA	0.0793
GGGTGGAA	0.0852
AGCGTCGC	0.0721
AGAGAGTA	0.0748
ACGACTGG	0.0674
CCACCCAA	0.0803
AAATTTCT	0.0704

Sequence	binding signal (normalized occupancy)
CCCTTTAG	0.0687
CGCGCGGA	0.0836
AAAGGAAA	0.0777
AGGTACGA	0.0738
CATAATCC	0.0816
ATACCCAG	0.0752
ACGGCACG	0.0814
ACATGCAT	0.105
ACGGCAAC	0.0772
ATCCCCAA	0.0794
CCTTCGAC	0.0701
ACAGAAGG	0.0726
ATAATCAG	0.0771
ACTTAGTC	0.0745
CGAACTCG	0.073
ATACATAT	0.0896
AGTGGCGC	0.0706
AGGTGGTG	0.0873
AACTATAG	0.0779
GTGGCCAA	0.076
CAGATTAA	0.0745
AACCACCG	0.0742
CTGAAGGC	0.0663
CCTGAACG	0.0747
TATGGGCA	0.0802

Sequence	binding signal (normalized occupancy)
CGGGAGGC	0.0684
TAAGGGAA	0.0759
CTAGTGTC	0.0704
TAGCTGAA	0.0722
ACGACGTG	0.0963
CAGATCTA	0.0775
ACTGACAA	0.0748
CAAGATAC	0.0771
GTCGGTTA	0.0702
GATTGTGA	0.0758
AGCAGGAG	0.0736
ATCGACCG	0.0683
ATATCCTC	0.0839
GTGGCAAC	0.0755
ACTAACCG	0.0725
ACGTGTAG	0.103
GGCTAAAA	0.0665
AGTGCTAG	0.0731
GCAACCTA	0.078
